The densities may have been worked out from excess volumes.
Assay: xn = mol fraction of the nth substance listed
Conditions: 101 kPa

CCCC[n+]1ccn(C)c1.F[P-](F)(F)(F)(F)F + NCCO
mass density [kg/m3]
Conditions	x2 = 0	x2 = 0.1185	x2 = 0.2113	x2 = 0.3052	x2 = 0.4282	x2 = 0.4918	x2 = 0.6161	x2 = 0.6984	x2 = 0.8022	x2 = 0.9028
288.15 K	1376	1361.5	1348.6	1332.8	1309.4	1295	1260.6	1231.4	–	–
293.15 K	1371.7	1357.1	1344.2	–	1305	1290.6	1256.2	1227	1178.4	1111.6
298.15 K	–	1352.8	–	–	1300.7	1286.3	1252	1222.8	–	1107.6
303.15 K	1363.3	1348.6	1335.7	1320	1296.5	1282.1	1247.8	–	1170.2	1103.5
308.15 K	1359.5	1344.7	1331.9	1316.2	–	1278.4	1244.2	1215	1166.7	1100.1
313.15 K	1354.9	1340.1	1327.2	–	1288.1	1273.7	1239.6	1210.4	1162.1	1095.6
318.15 K	1351	1336.1	1323.2	–	–	–	1235.4	1206.2	1157.9	1091.3
323.15 K	–	1332.3	1319.4	–	1280.4	1266	1231.9	1202.7	1154.5	1088.1

NCCO + CCCC[n+]1ccn(C)c1.F[P-](F)(F)(F)(F)F
x1 = 1
Conditions	mass density [kg/m3]
298.15 K	1012
303.15 K	1008.2
308.15 K	1005.2
313.15 K	1001
323.15 K	994.1

CCCC[n+]1ccn(C)c1.F[P-](F)(F)(F)(F)F + CN(C)CCO
x2 = 0
Conditions	mass density [kg/m3]
288.15 K	1376
293.15 K	1371.7
298.15 K	1367.4
303.15 K	1363.3
308.15 K	1359.5
313.15 K	1354.9
318.15 K	1351
323.15 K	1347.3

CN(C)CCO + CCCC[n+]1ccn(C)c1.F[P-](F)(F)(F)(F)F
mass density [kg/m3]
Conditions	x1 = 0.1221	x1 = 0.2143	x1 = 0.3182	x1 = 0.4405	x1 = 0.5166	x1 = 0.605	x1 = 0.709	x1 = 0.8063	x1 = 0.9128	x1 = 1
288.15 K	1347.9	1324.3	–	1252.8	–	1181.7	–	–	978.6	891.7
293.15 K	1343.5	–	1289.5	–	–	1177	1120.9	–	974	887.5
298.15 K	–	1315.4	1285	1243.7	1213.2	1172.6	1116.5	1054	–	–
303.15 K	1335	1311.4	1280.9	–	1209.4	1168.9	1112.8	–	966.6	879.3
308.15 K	1330.9	1307	1276.4	–	1204.4	1163.5	1107.3	1044.8	960.7	873.4
313.15 K	1325.9	1301.9	1271.1	1229.3	1198.6	–	1101.2	1038.5	954.2	869.2
318.15 K	1322	1298	1267.5	1225.8	1195.2	1154.4	1098.2	1035.7	951.6	865.7
323.15 K	1318	1293.9	1263.3	1221.5	–	1149.9	1093.5	1031	946.8	–

Source: a compilation of properties of binary mixtures (doi:10.1016/j.molliq.2008.06.014)
